Test results reported in the RNAGym collection of RNA variant scans (doi:10.7554/elife.90254).
The source gives no read counts; variants with many changes may rest on few reads.

B1: OR4K15 (parent)
chain: GUUAACGGUCAUAGGCCAUGGAAACUAGGAGCACCAUUUCGCUGCCAGUGAAGAAAUGAACAAAGAAAAUCUGGGCCAGGCAGGCAUCAAAAGAAAUAGUCUUGCGCUCAACCAGAAAGUCUGUAAUCAUUUUAAGGGUA

Variants of: B1
Experiment: self-cleavage, relative activity (ratio to wild type); higher = more cleavage; in vitro, sequencing; the parent is a self-cleaving ribozyme

Variant	self-cleavage
GUUAACGGUCAUAGGCCAUGGAUACUAGGAGCACCAUUUCGCUGCCAGUAAAGAAACGAACAAAGUAAAUCUGGGCCAGGCAGGCAUCAGAAGAAAUAGUCUUGCGCUCAACCAGAAAGUCUGUAAUCAUUUUAAGGGUA	1.05
GUUAACGGUCAUAGGCCAUGGAACCUAGGGGCACCAUUUCGCUGCCAGUGAAGAAAUGGACAAAGAAAAUCUGGGCCAGGCAGGCAUCAAAAGAAAUAGUCUUGCGCUCAACCAGAAAGUCUGUAAUCAUUUUAAGGGUA	1.41
GUUAACGGUCAUAGGCCAUGGAACCUAGGAGCACCAUUUCGCUGCCAGUGAAGAAAUGAACAAAGAAUAUCUGGGCCAGGCAGGCAUCAAAAGAAAUAGUCUUGCGCUCAACCAGAAAGUUUGUAAUCAUUUUAAGGGUA	1.96
GUUAACGGUCAUAGGCCAUGGAACCUAGGAGCACCACUUCGCUGCCAGUGAAGAAAUGAACAAAGAAAAUCUGGGCCAGGCAGGCACCAAAAGAAAUAGUCUUGCGCUCAACCAGAAAGUCUGUAAUCAUUUUAAGGGUA	0.65
GUUAACGGUCAUAGGCCAUGGAUACUAGGAGCACCAUUUCGCUGCCAGUGAAGAAACGAACAAAGAAAAUCUGGGCCAGGCAGGCAUCAAAAGAAAUAGUCUUGCGCUCAACCCGAAAGUCUGUAAUCAUUUUAAGGGUA	0.01
GUUAACGGUCAUAGGCCAUGGAACCUAGGAGCACCAUUUCGCUGCCAGUGAAGAGAUGAACAAAGAAAGUCUGGGCCAGGCAGGCAUCGAAAGAAGUAGUCUUGCGCUCAACCAGAAAGUCUGUAAUCACUUUAAGGGUA	0.55
GUUAACGGUCAUAGGCCAUGGAACCUAGGAGCACCAUUCCGCUGCCAGUGAAGAAAUGAACAAAGAAAAUCUGGGCCAGGCAGGCAUCAAAAGAGAUAGUCUUGCGCCCAACCAGAAAGUCUGUAAUCAUUUUAAGGGUA	0.02
GUUAACGGUCAUAGGCCAUGGAACCUAGGAGCACCAUUUCGCUGCCAGUGAAGUAAUGAACAAAGAAAAUCUGGGCCAGGCAGGCAACAAAAGAAAUAGUCUUGCGCUCAGCCAGAAAGUCUGUAAUCAUUUUAAGGGUA	0.01
GUUAACGGUCAUAGGCCAUGGAACCUAGGAGCGCCAUUUCGCUGCCAGUGAAGAAAUGAACAAAGAGAAUCUGGGCCAGGCAGGCAUCAAAAGAAAUAGUCUUGCGCUCAACCAGAAAGUCAGUAAUCAUUUUAAGGGUA	0.38
GUUAACGGUCAUAGGCCAUGGAACCUAGGAGCACCAUUUCGCUGCCAGUGAGGAAAUGAACAAAGAAAAUCUGGGCCGGGCAGGCAUCAAAAGAAAUAGUCUUGCGCUCAACCAGAAAGUCUGUAAUCAUUUUAAGGGUA	0.31
GUUAACGGUCAUAGGCCAUGGAACCCAGGAGCACCAUUUCGCUGCCAGUGAAGAAGUGAGCAAAGAAAAUCUGGGCCGGGCGGGCAUCAAAAGAAAUAGUCUUGCGCUCAACCAGAAAGUCUGUAAUCAUUUUAAGGGUA	0.32
GUUAACGGUCAUAGGCCAUGGAACCUAGGAGCACCAUUUCGCUGCCAGUGAAGAAACGAACAAGGAAAAUCUGGGCCAGGCAGGCAUCAAAAGAAAUAGUCUUGCGCUCAACCAGAAAGUCUGUAAUCAUUUUAAGGGUA	1.7
GUUAACGGUCAUAGGCCAUGGAACCUAGGAGCACCAUUUCGCUGCCAGUGAAGAAAUGAACAAAGAAGAUCUGGGCCAGGCAGGCAUCAAAAGAAAUGGUCCUGCGCUCAACCAGAAAGUCUGUAAUCAUUUAAAGGGUA	2.01
GUUAACGGUCAUAGGCCAUGGAUACUAGGAGCACCACUACGCUGCCAGUGAAGAAAUGAACAAAGAAAAUCUGGGCCAGGCAGGCAUCAAAAGAAAUAGUCUUGCGCUCAACCAGAAAGUCUGUAAUCAUUUUAAGGGUA	1.4
GUUAACGGUCAUAGGCCAUGGAUACUAGGAGCACCAUCUCGCUGCCAGUGAAGAAAUGAACGAAGAAAAUCUGGGCCAGGCAGGCAUCAAAAGAAAUAGUCUUGCGCUCAACCAGAAAGUCCGUAAUCAUUUUAAGGGUA	1.34
GUUAACGGUCAUAGGCCAUGGAACCUAGGAGCACCAUUUCGCUGCCAGUGAAGAAAUGAACAAAGAGAAUCUGGGCCAGGCAGGCAUCAAAAGAAAUAGUCUUGCGCUCAACCAGAAAGUCUGUAAUCAUUCUAAGGGCA	1.18
GUUAACGGUCAUAGGCCAUGGAACCUAGGAGCACCAUUUCGCUGCCCGUGAAGAAAUGAACAAAGAAAAUCUGGGCCAGGCAGGCAUCAAAAGAAAUAGUCUUGCGCUCUACCAGAAAGUCUGUAAUCAUUUUAAGGGUA	1.11
GUUAACGGUCAUAGGCCAUGGAACCUGGGAGCACCAUUUCGCUGCCAGUGAAGAAAUGAACAAAGAAAAUCUGGGCCAGGCAGGCAUCAAAAGAAAUAGUCCUGCGCUCAACCAGAAAGUCUGUGAUCAUUUUAAGGGUA	0.27
GUUAACGGUCAUAGGCCAUGGAACCUAGGAGCACCUUUUCGCUGCCAGUGAAGAAAUGAGCAAAGAAAAUCUGGGCCAGGCAGGCAUCAAAAGAAAUAGUCUUGCGCUCAACCAGGAAGUCCGUAAUAAUUUUAAGGGUA	0.49
GUUAACGGUCAUAGGCCAUGGAACCUAGGAGCACCAUUUCGCUGCCAGUGAAGGAAUGAACAAAGAAGAUCUGGGCCAGGCUGGCAUCAAAAGAAAUAGUCUUGCGCUCAACCAGAAAGUCUGUAAUCAUUCUAAGGGUA	0.1
GUUAACGGUCAUAGGCCAUGGAACCUAGGGGCACCAUUUCGCCGCCAGUGAAGAAAUGAACAAAGAAAAUCCGGGCCAGGCAGGCAUCAAAAGAAAUAGUCUUGCGCUCAACCAGAAAGUCUGUAAUCAUCUUAAGGGUA	0.24

Variant	self-cleavage
GUUAACGGUCAUAGGCCAUGGAACCUAGGAGCACCAUUUCGCUGCCAGUGAAGAAAUGAACAAAGAAAAUCUGGGCCAGGCAGGCAUCAAAAGAGAUAGUCUUGAGCUCAACCAGAAAGUCUGUAAUCAUUUUAAGGGUA	0.05
GUUAACGGUCAUAGGCCAUGGAACCUAGGAGCACCAUUUCGCUGCCAGUGAAGAAAUGAACAAAGAAAAUCUGGGCCAGGCAGGCAUCAGAAGAAAUAGUCUUACGCUCAACCAGAAAGUCUGUAAUCAUUUUAAGGGUA	0.01
GUUAACGGUCAUAGGCCAUGGAUACUAGGAGCACCACCUCGCUGCCAGUGAAGAAAUGAACAAAGAGAAUCUGGGCCAGGCAGGCAUCAGAAGAAAUAGUCUUGCGCUCAACCAGAAAGUCUGUAAUCAUUUUAAGGGUA	0.9
GUUAACGGUCAUAGGCCAUGGAACCUAGGAGCACCAUUUCGCUGCCAGUGUAGAAAUGAACAAAGAAAAUCUGGGCCAGGCAGGCAUCAAAAGAAAUAGUCUUGCGCUCAGCCAGAAAGUCUGUAAUCAUUUUAAGGGUA	0.03
GUUAACGGUCAUAGGCCAUGGAUACUAGGAGCACCAUUUCGCUGCCAGUGAAGAAAUGAACAAAGAAAAUCUGGGCCAGGCAGGCAUCAAAAGAAAUAGCCUUGCGCUCAACCGGAAAGUCUGUAAUCAUUUUAAGGGUA	1.4
GUUAACGGUCAUAGGCCAUGGAACCUAGGAGCACCAUUUCGCUGCCAGUGAAGAAAUGAGCAAAGAAAAUCUAGGCCAGGCGGGCAUCAAGAGAAAUAGUCUUGCGCUCAACCAGAAAGUCUGUAAUCAUUUUAAGGGUA	0.08
GUUAACGGUCAUAGGCCAUGGAUACUAGGAGCACCAUUUCGCCGCCAGUGAAGAAAUGAACAAAGAAAACCUGGGCCAGGCAGGCAUCAAAAGACAUAGUCUUGCGCUCAACCAGAAAGUCUGUAAUCAUUUUAAGGGUA	0.6
GUUAACGGUCAUAGGCCAUGGAACCUAGGAGCGCCAUUUCGCUGCCUGUGAAGAAAUGAACAAAGAAAAUCUGGGCCAGGCAGGCAUCAAAAGAAAUAGUCUUGCGCUCAACCAGAAAGUCUGUAAUCAUCUUAAGGGUA	0.27
GUUAACGGUCAUAGGCCAUGGAACCUAGGAGCACCAUUUCGCUGCCAGUGAAGAAAUGAACAAAGAAAAUCUGGGCCAGGCAGGCAUCGAAAGAAGUAGUCUUGCGCUCAACCAGAAAGUCUGUAAUCAUUUUAAGGGUA	1.33
GUUAACGGUCAUAGGCCAUGGAACCUAGGAGCACCAUUUCGCUGCCAGUGAAGAAAUGAACAGAGAAAAUCUGGGCCAGGCAGGCAUCAAAAGAAAUAGCCUUGCGCUCAACCAGAAAGUCUGUAAUCAUUUUAAGGGUA	1.89
GUUAACGGUCAUAGGCCAUGGAACCUAGGAGCACCAUUUCGCUGCCAGUGAAGAAAUGAACAAAGAAAACCUGGGCCAGGCAGGCAUCAAAAGAAAAAGUCUUGCGCUCAACCAGAAAGUCCGUAAUCAUUUUAAGGGUA	0.33
GUUAACGGUCAUAGGCCAUGGAACCUAGGAGCACCAUUUCGCUGCCAGUGAAGAAAUGAACAAAGAAUGUCUGGGCCAGGCAGGCACCAAAGGAAAUAGUCUUGCGCUCAACCAGAAAGUCUGUAAUCAUUUUAAGGGUA	0.55
GUUAACGGUCAUAGGCCAUGGAACCUAGGAGCACCACUUCGCUGCCAGUGAAGAGAUGAACAAAGAAAAUCUGGGCCAGGCAGGCAUCAAAAGAAAUAGUCUUGCGCUCAACCAGAAAGUCUGUAAUCAUUUUAAGGGUA	1.81
GUUAACGGUCAUAGGCCAUGGAACCUAGGAGCUCCAUUUCGCUGCCAGUGAAGAAAUGAGCAAAGAAAAUCUGGGCCAGGCAGGCAUCACAAGAAAUAGUCUUGCGCUCAACCAGAAAGUCUGUAAUCAUUUUAAGGGUA	0.46
GUUAACGGUCAUAGGCCAUGGAACCUAGGAGCACCAUUUCGCUGCCAGUGAAGAAAUGAACGAAGAAAAUCUGGGCCAGGCAGGCAUCAAAUGAAAUAGUCUUGCGCUCAACCAGAAAGUCUGUAAUCAUUUUAAGGGUA	2.13
GUUAACGGUCAUAGGCCAUGGAACCUAGGAGCGCCAUUUCGCUGCCGGUGAAGAAAUGAACAAAGAAAAUCUGGGCCAGGCAGGCACCAAAGGAAAUAGUCUUGCGCUCAACCAGAAAGUCUGUAAUCAUUUUAAAGGUA	0.45
GUUAACGGUCAUAGGCCAUGGAUACUAGGAGCACCAUUUCGCUGGCAGUGAAGAAAUGAACAAAGAAAAUCUGGGCCUGGCAGGCAUCAAAAGAAAUAGUCUUGCGCUCGACCAGAAAGUCUGUAAUCAUUUUAAGGGUA	0.13
GUUAACGGUCAUAGGCCAUGGAUACUAGGAGCACCAUUUCGCUGCCAGUGAAGAAAUGAACAAAGAAAAUCUGGGCCAGGCAGUCAUCAAAAGAAAUAGUCUUGCGCUCAACCUGAAAGUCUGUAAUCAUUUUAAGGGUA	0.03
GUUAACGGUCAUAGGCCAUGGAACCUAGGAGCACCAUUUCGCUGCCAGUGAAGAAGUGAACAAAGAAAAUCUGGGCCAGGCAGGCAUCAAAUGAAAUAGCCUUGCGCUCAACCAGAAAGUCUGUAAUCAUUUUAAGGGUA	1.52
GUUAACGGUCAUAGGCCAUGGAACCUAGGAGCACCAUUUCGCUGCCAGUGAAGAAAUGGACAAAGAAAAUCUGGGCCAGGCAGGCAUCAAAAGAAAUAGUCUUGCGCUCAACCAGAAAGUCUGUAGUCAUUUUAAGGGUA	0.85
